# Assay results reported in paper PMC4336329 (PLoS ONE, 2015).
# Out of some 310,000 compounds screened, about 14,000 (4.5%) showed an effect of 50% or more. Effects have a minus sign here. The list shows a part of the results.
# Target: human ether-à-go-go-related gene (hERG) potassium channel (human, UniProt Q12809)
# Assay: primary screen, population patch clamp on CHO cells stably expressing hERG
# 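Also: peak tail current of the secondary pulse compared with the same well before compound.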
# Chain of human ether-à-go-go-related gene (hERG) potassium channel (Q12809 whole entry, looked up): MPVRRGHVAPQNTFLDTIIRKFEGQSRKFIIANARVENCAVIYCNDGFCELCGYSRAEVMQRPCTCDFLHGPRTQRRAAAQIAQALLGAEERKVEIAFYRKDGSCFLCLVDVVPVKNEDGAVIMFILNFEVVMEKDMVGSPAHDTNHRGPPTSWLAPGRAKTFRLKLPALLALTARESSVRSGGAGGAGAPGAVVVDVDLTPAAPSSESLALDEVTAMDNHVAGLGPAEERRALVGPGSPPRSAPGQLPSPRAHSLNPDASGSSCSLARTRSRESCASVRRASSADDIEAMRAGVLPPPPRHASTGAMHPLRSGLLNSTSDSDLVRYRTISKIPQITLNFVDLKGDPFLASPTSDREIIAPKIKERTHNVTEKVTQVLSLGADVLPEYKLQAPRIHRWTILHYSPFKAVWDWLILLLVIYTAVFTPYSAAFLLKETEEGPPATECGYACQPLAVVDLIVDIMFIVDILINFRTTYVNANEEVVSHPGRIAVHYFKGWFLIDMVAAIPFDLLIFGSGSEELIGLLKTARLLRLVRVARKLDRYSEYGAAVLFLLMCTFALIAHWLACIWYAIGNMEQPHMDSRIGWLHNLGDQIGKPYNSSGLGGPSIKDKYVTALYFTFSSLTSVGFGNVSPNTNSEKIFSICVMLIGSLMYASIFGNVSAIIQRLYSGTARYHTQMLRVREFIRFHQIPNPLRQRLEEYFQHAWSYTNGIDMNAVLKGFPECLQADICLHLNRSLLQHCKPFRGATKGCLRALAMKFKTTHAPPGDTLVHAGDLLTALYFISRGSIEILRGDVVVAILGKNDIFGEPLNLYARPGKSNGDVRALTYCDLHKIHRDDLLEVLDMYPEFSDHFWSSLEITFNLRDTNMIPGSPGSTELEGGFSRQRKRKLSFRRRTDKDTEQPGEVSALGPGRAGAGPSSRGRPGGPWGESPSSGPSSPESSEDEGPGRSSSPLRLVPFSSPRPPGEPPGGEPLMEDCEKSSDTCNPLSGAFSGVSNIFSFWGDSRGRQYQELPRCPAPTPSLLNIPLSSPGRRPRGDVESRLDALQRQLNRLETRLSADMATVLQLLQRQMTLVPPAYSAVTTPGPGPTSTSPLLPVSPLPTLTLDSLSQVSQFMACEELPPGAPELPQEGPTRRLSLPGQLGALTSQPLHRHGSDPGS
row,SMILES,"hERG current change (%, negative = inhibition) at 10uM"
1,CCN1CCN(c2nc([N+](=O)[O-])nn2C)CC1,5.29%
2,CCN1CCN(c2nc(-c3ccccn3)nc3ccccc23)CC1,-56.3%
3,CC(=O)Nc1ccc(Nc2nc3ccccc3n3cnnc23)cc1,-3.48%
4,Cc1ccc(-n2nc(C)c3c2OC(N)=C(C#N)C3c2cccs2)cc1 (centres unmarked),18%
5,Cl.OC(COc1ccc(Br)cc1)CN1CCOCC1 (centres unmarked),-0.178%
6,CC(C)c1cc(C(=O)N2CCCC(CCC(=O)NCc3ccccc3F)C2)n(C)n1 (centres unmarked),10.6%
7,CCn1c(SCC(N)=O)nnc1-c1ccc(OC)c(OC)c1,16.5%
8,COCCCNC(=O)c1cccc(NC(=O)c2ccccc2)c1,11.9%
9,Cc1ccc(S(=O)(=O)N[C@H](C(=O)N2CCC(C(=O)NCC(=O)O)CC2)C(C)C)cc1,22.3%
10,O=C(Nc1nnc(-c2ccc(Cl)cc2)o1)Nc1ccccc1Cl,6.43%
11,Cc1cccc(Oc2ccc(Cl)cc2N)c1,12.4%
12,O=C(CCS(=O)(=O)c1ccccc1)Nc1nc2cc3c(cc2s1)OCCO3,1.79%
13,CCCCn1c(C(C)NC(=O)CCC)nc2ccccc21 (centres unmarked),10.3%
14,CCCCCNC(=O)c1ccc2c(=O)n(CCCOCC)c(=S)[nH]c2c1,9.13%
15,Cc1cc(OCCOCCN2CCCC2)ccc1C(C)C,-53.9%
16,CCOC(=O)c1cc2c(ccn2C)n1CC(=O)N(Cc1ccccc1)c1ccc(F)cc1,2.13%
17,CS(=O)(=O)N1CCC(C(=O)Nc2cccc(Cl)c2Cl)CC1,12.1%
18,CC(C)Cn1c(N)c(C(=O)CSc2nccn2C)c(=O)n(C)c1=O,-4.67%
19,C/C(=N\NC(=S)NC(C)C)c1ccc(Cl)c([N+](=O)[O-])c1,9%
20,COc1cccc(-c2nc(N3CCN(C)CC3)c3ccccc3n2)c1O,-30.8%

row,SMILES,"hERG current change (%, negative = inhibition) at 10uM"
1,Cc1ccc(N=C2C(=O)Nc3c(C)cccc32)cc1,5.71%
2,C/C(CCc1ccc2c(c1)OCO2)=N\N=C1\NC(=O)CC(C(=O)Nc2ccc(Cl)cc2)S1 (centres unmarked),-5.97%
3,CN(C)c1ccc(/C=N/NC(=O)c2ccco2)cc1,1%
4,COc1ccccc1CC(=O)Nc1cccc(C)n1,15.6%
5,Nc1ccccc1C(=O)c1ccccc1,-2.49%
6,CCN(CC(=O)NCc1ccc(F)cc1)C(=O)/C=C/c1ccco1,-9.64%
7,Cc1ccccc1CNC(=O)Cc1cccs1,15.9%
8,CCc1ccc(C2NC(c3ccc(CC)cc3)C([N+](=O)[O-])C(C)(C)C2[N+](=O)[O-])cc1 (centres unmarked),0.716%
9,Cc1ccccc1-c1nnc(SCCOc2ccc3c(C)cc(=O)oc3c2)o1,-4.38%
10,CN(C)C(=O)COc1ccc(Oc2ccccc2)cc1,-30.5%
11,COCCNC(=O)CN(Cc1ccc(F)cc1)C(=O)CCC(=O)Nc1nccs1,-4.06%
12,CCOCCN1CCN(C(=O)CN2CCCC2=O)CC1.O=C(O)/C=C\C(=O)O,-1.99%
13,Cc1ccc(CNc2nc(N)c([N+](=O)[O-])c(Nc3ccc(F)cc3)n2)cc1,4.36%
14,COc1cccc(/C=N/NC(=O)Cn2nc([N+](=O)[O-])cc2C)c1,2.68%
15,CC(=O)N1CCc2ccccc2C1CC(=O)O (centres unmarked),14.4%
16,CC(=O)N1CCN(C(=O)c2ccc(NS(=O)(=O)c3ccc4[nH]c(=O)[nH]c4c3)cc2)CC1,4.18%
17,CCc1ccccc1NC(=O)[C@@H]1CCC(=O)N1C1OC(=O)c2ccccc21 (some centres unmarked),20.1%
18,O=C(CCNS(=O)(=O)c1cccc2nonc12)NC1CCCCC1,5.48%
19,O=C(c1cc(-c2ccco2)on1)N1CCOCC1,12.5%
20,CC(=O)Nc1ccc2nc(NC(=O)COc3ccc(C)cc3)sc2c1,18.1%

row,SMILES,"hERG current change (%, negative = inhibition) at 10uM"
1,O=C(O)CCN1C(=O)CC2(CCCCC2)C1=O,8.07%
2,CCOc1ccccc1C(=O)Nc1nccs1,-8.92%
3,CCOc1ccccc1NC(=O)CN(C)S(=O)(=O)c1cccc2nsnc12,-19%
4,Cc1ccc(S(=O)(=O)N2CCC(C(=O)NCCCN3CCOCC3)CC2)cc1C,-6.75%
5,Fc1ccc(-n2nnc(-c3cccnc3Cl)n2)cc1,6.46%
6,COc1ccc(-n2nc(C(=O)NCC(=O)N3CC(C)CC(C)C3)c3ccccc3c2=O)cc1OC (centres unmarked),4.15%
7,O=S(=O)(c1ccccc1)c1nc(-c2cccs2)oc1NCc1cccnc1,-50.5%
8,CCOC(=O)C1CCN(C(=O)CN(c2cc(OC)ccc2OC)S(=O)(=O)c2ccccc2)CC1,-2.73%
9,O/C(=C\c1ccc2ccccc2n1)c1ccc(O)cc1O,4.33%
10,O=C(CSCC(=O)N1CCCCC1)Nc1nc(-c2cccs2)cs1,-33.5%
11,Cc1ccc(NC(=O)c2cc(C)nc3ccccc23)cc1,12.8%
12,C/C(Cn1nnc2ccccc21)=N\OC(=O)c1cc(F)c(F)cc1Cl,-80.5%
13,COc1cccc2c1O/C(=N\O)C(C(=O)Nc1cccc(Br)c1)C2 (centres unmarked),18.6%
14,N#Cc1c(Cl)c(Cl)c2nnc(-c3ccc(Br)cc3)n2c1Cl,-15.2%
15,CCCCN(CC)Cc1c(O)ccc2c3c(c(=O)oc12)CCC3,-14.4%
16,O=C1CN(C(=O)c2ccc(Br)o2)C(c2ccccc2)c2cc(F)ccc2N1 (centres unmarked),-45.3%
17,O=C1OCc2cc(-n3cccc3)ccc21,-6.92%
18,Nc1nncn1C(=O)CCCOc1ccccc1,12.1%
19,CC/C(=N\O)c1ccc(OC)c(OC)c1,21.1%
